# Source: publication PMC4336329 (PLoS ONE, 2015)
# Hit rate of the full screen: of about 310,000 compounds, about 2,200 (0.71%) showed an effect of 50% or more. Effects have a minus sign here. This is one part of the list.
# Biological target: human ether-à-go-go-related gene (hERG) potassium channel (human, UniProt Q12809)
# Test: primary screen, population patch clamp on CHO cells stably expressing hERG
# Sequence of human ether-à-go-go-related gene (hERG) potassium channel (Q12809 whole entry, looked up): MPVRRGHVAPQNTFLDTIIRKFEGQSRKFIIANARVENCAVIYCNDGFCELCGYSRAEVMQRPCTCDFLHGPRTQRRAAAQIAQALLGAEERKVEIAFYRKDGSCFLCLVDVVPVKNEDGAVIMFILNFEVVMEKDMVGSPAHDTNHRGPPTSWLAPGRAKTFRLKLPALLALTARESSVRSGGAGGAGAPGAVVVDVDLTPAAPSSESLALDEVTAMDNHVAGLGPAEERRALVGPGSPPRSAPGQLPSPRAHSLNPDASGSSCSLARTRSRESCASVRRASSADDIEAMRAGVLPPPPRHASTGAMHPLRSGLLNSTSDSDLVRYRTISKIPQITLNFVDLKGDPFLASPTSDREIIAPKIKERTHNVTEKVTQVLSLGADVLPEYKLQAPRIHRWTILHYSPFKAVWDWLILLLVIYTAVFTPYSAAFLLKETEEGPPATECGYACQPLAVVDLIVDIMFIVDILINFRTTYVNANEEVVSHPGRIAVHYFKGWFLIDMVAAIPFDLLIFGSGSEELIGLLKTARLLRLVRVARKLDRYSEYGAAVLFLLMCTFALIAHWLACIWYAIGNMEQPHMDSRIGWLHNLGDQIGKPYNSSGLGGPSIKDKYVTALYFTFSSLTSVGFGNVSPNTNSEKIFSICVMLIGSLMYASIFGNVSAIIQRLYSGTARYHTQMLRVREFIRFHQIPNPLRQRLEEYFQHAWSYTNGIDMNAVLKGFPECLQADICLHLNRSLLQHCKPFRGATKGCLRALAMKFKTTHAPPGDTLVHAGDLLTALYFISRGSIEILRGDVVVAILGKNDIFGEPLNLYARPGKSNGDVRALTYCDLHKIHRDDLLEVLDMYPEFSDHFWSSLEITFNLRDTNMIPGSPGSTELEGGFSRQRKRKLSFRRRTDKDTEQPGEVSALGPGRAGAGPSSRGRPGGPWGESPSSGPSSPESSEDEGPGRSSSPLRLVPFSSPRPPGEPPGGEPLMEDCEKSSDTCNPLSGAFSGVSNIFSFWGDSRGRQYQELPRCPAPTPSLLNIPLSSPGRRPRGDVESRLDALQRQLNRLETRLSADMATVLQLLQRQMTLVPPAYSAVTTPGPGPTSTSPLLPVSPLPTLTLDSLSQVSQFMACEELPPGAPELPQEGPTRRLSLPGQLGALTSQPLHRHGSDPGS
row,SMILES,"hERG current change (%, negative = inhibition) at 1uM [%]"
1,Cc1cnc(C(=O)OCC(=O)Nc2cccc(S(=O)(=O)N3CCCCC3)c2)cn1,7.04
2,NNC(=O)c1cc2ccccc2cc1O,5.55
3,Cc1cc(O)c(/C=N/Nc2ccc(F)cc2)c(=O)o1,12.3
4,O=C(NCc1ccccc1Cl)c1ccc2nc[nH]c2c1,5.92
5,c1cncc(-c2nc(NCCCn3ccnc3)c3ccccc3n2)c1,-13.1
6,CCC(C)Oc1cccc(OCCCCN2C(=O)NC(C)(C)C2=O)c1 (stereo not shown),0.704
7,Cc1ccc(C(=O)OCC(=O)NCCNC(=O)COC(=O)c2ccc(C)o2)o1,17.7
8,Cc1cc(OCC[N+]2(C)CCCCC2)nc2ccccc12.[I-],11.6
9,Cc1ccccc1-c1ccnc2[nH]n(-c3ccccc3)c(=O)c12,14.8
10,CCc1ccc(/C=N/NC(=O)c2nnn(-c3nonc3N)c2CN2CCc3ccccc32)cc1,9.5
11,CC(=O)Nc1ccc(S(=O)(=O)N(C)CC(=O)Nc2ccc(F)c(F)c2F)cc1,7.72
12,Cc1ccc(COC(=O)c2cc(S(=O)(=O)N3CCOCC3)ccc2C)cc1,7.76
13,COc1cc(/C=C/C(=O)Nc2nc3ccc(S(=O)(=O)N(C)C)cc3s2)cc(OC)c1OC,3.31
14,Cc1ccc(NC(=O)CSCc2cc(=O)n3nc(C4CC4)sc3n2)cc1,8.38
15,O=C(CSc1ccc(Cl)cc1)N1CCN(c2ccc(Cl)cc2[N+](=O)[O-])CC1,-39.9
16,Cc1cccc(NC(=O)C2(c3ccccc3)CC2(Cl)Cl)c1 (stereo not shown),16.7
17,C=Cn1ccnc1P(=S)(c1ccc(N(C)C)cc1)c1nccn1C=C,-2.94
18,COc1ccccc1-c1nc(SCC(=O)N(C)c2ccccc2)c2c(=O)n(C)c(=O)n(C)c2n1,13.3
19,C/C(=N\Nc1ccc(F)cc1F)c1ccccc1O,12.8
20,COCC(=O)NCc1ccc2c(c1)cc(C)n2C,-4.48
21,O=C(CCc1nnc(C2(c3ccc(Cl)cc3)CCC2)o1)NC1CC1,10.3
22,OC1CCCN(Cc2cccc3ccccc23)C1 (stereo not shown),14.7

row,SMILES,"hERG current change (%, negative = inhibition) at 1uM [%]"
1,CC(C)CCN(C(=S)NC(=O)C1CCCCC1)c1c(N)n(Cc2ccccc2)c(=O)[nH]c1=O,25.4
2,COCCCNC(=O)c1cc(-c2cccnc2)nc2ccc(S(=O)(=O)N3CCCCCC3)cc12,17.9
3,COC(=O)c1c(-c2ccc(Br)cc2)csc1NC(=O)Cc1ccc(OC)c(OC)c1,7.66
4,CC(C)NC(=O)C1CCCN(S(=O)(=O)c2cccs2)C1 (stereo not shown),8.52
5,O=C(CNC(=S)N(Cc1ccccc1)Cc1ccccc1F)NCc1ccccc1,16.9
6,COc1ccc(-n2c(=S)[nH]c3cc(C(=O)N4CCN(c5ccccc5)CC4)ccc3c2=O)cc1,18.7
7,CC(C)=CCc1c(O)ccc(C(=O)Cc2ccccc2)c1O,4.58
8,CN=C1CC(C)(C)CC(=O)/C1=C(/O)CCC(=O)NC,10.8
9,O=C(O)/C=C/c1ccc(O)c(O)c1,6.46
10,CCOC(=O)c1c(NC(C)=O)sc2c(OCC(O)CN(CC)CC)c(Br)ccc12 (stereo not shown),-13.8
11,Cc1cccc(NC(=S)NNC(=O)c2cc3c(s2)CCC(C)C3)c1C (stereo not shown),-0.82
12,COC(=O)c1ccc(NC(=O)C(=O)N2CCN(C(=S)Nc3ccc(OC)cc3)CC2)cc1,12.7
13,CCCn1nnc(NC(=S)NC(=O)/C=C/c2ccco2)n1,10.5
14,COc1cc(C2c3c(c(C)c(C)oc3=O)Oc3c(C)c(C)oc(=O)c32)ccc1OS(=O)(=O)c1ccc(C)cc1,13.2
15,O=S(=O)(Nc1nccs1)c1cnc(Cl)c(Br)c1,13.1
16,Cn1c(C(=O)N2CCC3(CC2)OCCO3)cc2c(=O)n(C)c3ccccc3c21,-0.0348
17,CCOC(=O)C1(CCc2ccccc2)CCN(C(=O)CCc2cnn(C)c2)CC1,-1.9
18,O=C(CN1CCc2cc3c(cc2C1)OCCCO3)Nc1ccccc1,3.59
19,COc1ccc(/C=C/C(=O)Nc2nc(N)n(-c3ccccc3)n2)cc1,-7.54
20,CCCC12CN(C(=O)c3ccco3)CC(CCC)(CN(C(=O)c3ccco3)C1)C2=O,7.91
21,O=C(Nc1ccc(CN2CCOCC2)cc1)c1ccc(-c2ccc(Br)cc2)o1,7.12
22,CN(Cc1ccco1)C(=O)CN1C(=O)NC2(CCCCC2)C1=O,17

row,SMILES,"hERG current change (%, negative = inhibition) at 1uM [%]"
1,COc1cccc(NC(=O)CN(C)C(=O)/C=C/c2cn(Cc3ccccc3)nc2-c2cccnc2)c1,-1.75
2,OC(Cc1cccnc1)(Cc1cccnc1)c1cc2ccccc2[nH]1,10.8
3,Cc1ccc(Nc2c(-c3ccc(N4CCOCC4)cc3)nc3ncccn23)cc1,15.1
4,Cc1cc(=O)oc2cc(NC(=O)C3COc4ccccc4O3)ccc12 (stereo not shown),22.3
5,Cn1cccc1/C=C1\SC(=O)N(c2ccc(O)cc2)C1=O,4.24
6,NC1=NC[C@H](Cc2ccc(O)cc2)N1CCc1cccc(F)c1,2.2
7,CCc1nc(SCC(=O)Nc2ccc(OC)cc2[N+](=O)[O-])n[nH]1,11.9
8,CC(C(=O)NC1CCCCC1)N(Cc1ccccc1)C(=O)c1snc(C(N)=O)c1N (stereo not shown),2.95
9,Clc1ccc(Cn2ncc3c(NCc4ccco4)ncnc32)c(Cl)c1,8.63
10,COC(=O)/C(=N/Nc1ccc(C)cc1)N1CCCc2ccccc21,6.54
11,COc1ccc(C2(C(=O)NCc3ccco3)CCCC2)cc1OC,3.87
12,O=C(CSCC(=O)N1CCN(c2ccccc2)CC1)Nc1nc(-c2ccc(Cl)s2)cs1,2.82
13,CCC(C)NC(=O)CCc1nnc2ccc(N3CCC(C)CC3)nn12 (stereo not shown),10.2
14,Cc1cc(NS(=O)(=O)c2c(C(=O)N3CCOCC3)c(C)n(C)c2C)ccc1Br,19.2
15,COc1ccc(Cc2nc(-c3ccccn3)no2)cc1OC,14.3
16,CC(C)C(=O)Nc1ccc(N2CCN(S(C)(=O)=O)CC2)cc1,6.35
17,COc1ccc(C)cc1-n1nnnc1SCc1cn2ccsc2n1,3.68
18,COC(=O)c1cc(S(=O)(=O)N2CCN(C(=O)c3ccco3)CC2)cn1C,25
19,N#Cc1cc(C#N)c(SCC(=O)N2CC(=O)Nc3ccccc32)nc1N,15.7
20,O=C(COc1ccccc1)NCC1(N2CCCCC2)CCCCC1,-3.96
21,CC(=O)c1ccc(OCc2cc(C(=O)N3CCCCC3c3cccnc3)no2)cc1 (stereo not shown),-0.85
22,O=c1c2c(nc3c(-c4ccc(Cl)cc4)c[nH]n13)CCC2,15.3

row,SMILES,"hERG current change (%, negative = inhibition) at 1uM [%]"
1,COCCNC(=O)CSc1nc(N)c(NC(=O)c2ccccc2F)c(=O)[nH]1,6.61
2,O=S(=O)(Nc1ccc2c(c1)OCO2)c1ccc(Br)s1,8.48
3,Cc1ccc(C(=O)N(CC(=O)NC2CCCC2)c2ccccc2C)s1,4.64
4,CCCN(CCC)C(=O)CC(c1ccccc1)C1CCOC(C)(C)C1 (stereo not shown),6.88
5,COc1ccc(CCNC(=O)CSc2ccc(-c3cccs3)nn2)cc1,8.41
6,Cc1ccc(C(=O)N2CCCC2)cc1S(=O)(=O)N1CCOCC1,6.52
7,Cc1nn(CC(O)CN2c3ccccc3Sc3ccccc32)c(C)c1Br (stereo not shown),9.45
8,CCCCCNc1nc(-c2ccccc2)nc(-n2ccnc2)n1,7.73
9,Cc1cccc(N(C(=O)c2snc(C(N)=O)c2N)C(C(=O)NCC2CCCO2)c2c[nH]c3ccccc23)c1 (stereo not shown),14.4
10,Cc1n[nH]c(=O)c2c(NC(=O)CSc3nc4ccccc4c(=O)n3CCCO)oc(C)c12,-3.91
11,Cn1cc(CCC(=O)N2CCC3(CC2)OCCO3)c2ccccc21,-4.35
12,CCOc1ccc(N2CC(C(=O)N3CCCC3)CC2=O)cc1 (stereo not shown),5.71
13,Cc1ccc(Cl)cc1NC(=O)CN1CCN(S(=O)(=O)N2CCC(C)CC2)CC1,-4.56
14,Cc1cccc(-c2nnc(SCC(=O)N3CCCC3)o2)c1,12.4
15,CN(C)C(=O)c1ccc2c3c(cccc13)CC2,19.3
16,COc1cc(C(=S)N2CCOCC2)ccc1OC(=O)c1cc([N+](=O)[O-])cc([N+](=O)[O-])c1,4.77
17,CCOC(=O)c1sc2nc(NC(=O)C3CC3)sc2c1C,2.72
18,COC(=O)c1c(-c2ccc(C)cc2)csc1N,1.71
19,COc1ccccc1CNc1ncc(-c2ccc(F)cc2)n1C.O=C(O)C(=O)O,-28.6
20,CCOC(=O)CC1C(=O)NCCN1S(=O)(=O)c1ccc(Cl)c(Cl)c1 (stereo not shown),5.21
21,O=C1NN(c2ccccc2)C(=O)/C1=C\c1ccccc1,8.73
22,Cc1noc(/C=C/NCc2cccnc2)c1S(=O)(=O)N(C)CC(=O)N1CCc2ccccc21,11.4
